Experimental data published in the supplement of paper PMC7826260.
Some of the results follow. The data describe in vitro nicking of single-stranded DNA by Rep domains at 3 µM enzyme and 37 °C for 1 h; the strands have 90 letters, of which the middle is given. A value is the log2 ratio of uncut reads to the pool without enzyme; the lower, the more was cut; hits are not called. The scaling is to total reads; values above 0 arise when much of the pool is cut.

Key:
Assay in all cases: uncleaved DNA left, log2 of reads against the no-enzyme library (log2 ratio); higher = less cleavage (more negative = more Rep cleavage of the k-mer); sequences stand for … in CTCGTCCG…ACCGGAGA
[1] = tested on: T1, Rep nickase domain of Muscovy duck circovirus
T1 sequence (protein, residues 1-111, tag omitted): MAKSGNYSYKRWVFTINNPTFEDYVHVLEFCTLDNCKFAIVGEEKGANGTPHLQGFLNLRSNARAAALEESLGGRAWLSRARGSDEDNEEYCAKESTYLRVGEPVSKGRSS
Protocol: (§1)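 A pool of 90-nt single-stranded DNAs with seven random bases just before the constant AC of the nick site (name = the seven bases) was cut by 3 µM recombinant His6-SUMO-tagged Rep nickase domain (300 nM DNA, 50 mM HEPES pH 8.0, 50 mM NaCl, 1 mM MnCl2, 1 h, 37 °C, three replicates). Uncut DNA was amplified and sequenced.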

[2] = tested on: T2, Rep nickase domain of banana bunchy top virus
T2 sequence (protein, residues 1-94, tag omitted): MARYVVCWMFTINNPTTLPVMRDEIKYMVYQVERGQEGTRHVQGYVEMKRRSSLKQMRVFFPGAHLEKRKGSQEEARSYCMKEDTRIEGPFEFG
Protocol: as §1

[3] = tested on: T3, Rep nickase domain of cabbage leaf curl virus
T3 sequence (protein, residues 1-116, tag omitted): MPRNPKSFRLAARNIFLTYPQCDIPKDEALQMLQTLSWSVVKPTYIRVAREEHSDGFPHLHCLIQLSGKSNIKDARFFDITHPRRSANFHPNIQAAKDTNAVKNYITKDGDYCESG
Protocol: as §1

[4] = tested on: T4, Rep nickase domain of chickpea chlorotic dwarf virus
T4 sequence (protein, residues 1-124, tag omitted): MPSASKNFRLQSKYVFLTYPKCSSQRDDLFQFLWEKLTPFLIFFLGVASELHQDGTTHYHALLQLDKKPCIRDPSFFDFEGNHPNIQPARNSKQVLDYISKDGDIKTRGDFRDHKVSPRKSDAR
Protocol: as §1

[5] = tested on: T5, Rep nickase domain of faba bean necrotic yellows virus
T5 sequence (protein, residues 1-98, tag omitted): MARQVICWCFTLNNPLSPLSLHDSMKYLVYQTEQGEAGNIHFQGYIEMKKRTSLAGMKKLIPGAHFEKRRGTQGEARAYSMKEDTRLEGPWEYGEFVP
Protocol: as §1

[6] = tested on: T6, Rep nickase domain of maize striate mosaic virus
T6 sequence (protein, residues 1-117, tag omitted): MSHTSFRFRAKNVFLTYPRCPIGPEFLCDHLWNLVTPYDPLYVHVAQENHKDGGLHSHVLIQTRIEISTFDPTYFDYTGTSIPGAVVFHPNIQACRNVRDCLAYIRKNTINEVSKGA
Protocol: as §1

[7] = tested on: T7, Rep nickase domain of porcine circovirus 2
T7 sequence (protein, residues 2-116, tag omitted): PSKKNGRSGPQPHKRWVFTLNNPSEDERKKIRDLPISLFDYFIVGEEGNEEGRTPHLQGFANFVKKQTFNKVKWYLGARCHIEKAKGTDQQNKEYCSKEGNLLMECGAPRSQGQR
Protocol: as §1

[8] = tested on: T8, Rep nickase domain of tomato golden mosaic virus
T8 sequence (protein, residues 1-124, tag omitted): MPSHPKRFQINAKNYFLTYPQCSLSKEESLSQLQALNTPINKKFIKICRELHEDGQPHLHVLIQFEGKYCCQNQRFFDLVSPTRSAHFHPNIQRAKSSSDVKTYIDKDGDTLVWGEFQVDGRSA
Protocol: as §1

[9] = tested on: T9, Rep nickase domain of tomato yellow leaf curl virus
T9 sequence (protein, residues 1-136, tag omitted): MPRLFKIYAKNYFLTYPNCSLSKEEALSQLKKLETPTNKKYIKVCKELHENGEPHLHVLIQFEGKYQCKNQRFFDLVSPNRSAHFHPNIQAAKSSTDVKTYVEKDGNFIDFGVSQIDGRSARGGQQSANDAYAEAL
Protocol: as §1

[10] = tested on: T10, Rep nickase domain of wheat dwarf virus
T10 sequence (protein, residues 1-137, tag omitted): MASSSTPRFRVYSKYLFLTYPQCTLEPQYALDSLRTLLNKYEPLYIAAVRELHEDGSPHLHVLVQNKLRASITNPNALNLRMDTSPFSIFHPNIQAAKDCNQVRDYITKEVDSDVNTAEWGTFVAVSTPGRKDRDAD
Protocol: as §1

Row | Sequence | uncleaved DNA left (log2) [1] | uncleaved DNA left (log2) [2] | uncleaved DNA left (log2) [3] | uncleaved DNA left (log2) [4] | uncleaved DNA left (log2) [5] | uncleaved DNA left (log2) [6] | uncleaved DNA left (log2) [7] | uncleaved DNA left (log2) [8] | uncleaved DNA left (log2) [9] | uncleaved DNA left (log2) [10]
1 | GCGGTGG | 0.101 | -0.0451 | -0.0988 | 0.312 | -0.0584 | 0.439 | -0.0127 | -0.0371 | -0.0461 | -0.196
2 | TGTGTCA | 0.0862 | 0.107 | 0.358 | 0.742 | 0.102 | 1.61 | 0.166 | 0.12 | 0.193 | 0.23
3 | TATGGCC | 0.142 | 0.0637 | 0.0474 | 0.136 | 0.0688 | -0.504 | 0.156 | 0.0321 | -0.0312 | 0.143
4 | CCCCATA | -0.145 | 0.00724 | -0.201 | -1.24 | 0.0134 | -0.8 | -0.216 | 0.0109 | 0.0282 | 0.0541
5 | TGGGATA | -0.0749 | -0.00383 | 0.572 | 1.73 | -0.076 | 1.97 | 0.0831 | 0.000134 | -0.0302 | 0.000935
6 | GTTCAGA | 0.0211 | 0.0894 | 0.35 | 0.906 | -0.08 | 1.74 | 0.212 | 0.139 | 0.0253 | 0.172
7 | GTACGTA | 0.0957 | 0.0117 | 0.393 | 0.718 | 0.0298 | 1.34 | 0.131 | 0.0328 | 0.0632 | 0.0764
8 | CAGAAAA | -0.066 | -0.0302 | -0.0319 | -0.247 | -0.0705 | -0.723 | -0.338 | 0.024 | -0.166 | -0.0899
9 | CAGTGTG | -0.045 | -0.0515 | -0.747 | 0.131 | -0.0621 | -0.621 | -0.0543 | -0.144 | 0.118 | 0.0101
10 | GCGCGAT | 0.0962 | -0.0903 | -0.241 | 0.116 | -0.0882 | -0.101 | 0.028 | 0.0133 | 0.0421 | 0.0529
11 | AGTTGCT | -0.329 | -0.177 | -0.862 | -1.02 | -0.052 | -1.21 | -3.17 | -0.0493 | 0.0622 | -0.129
12 | CACGGAA | -0.0509 | 0.216 | 0.301 | 0.749 | 0.157 | 0.87 | 0.175 | 0.00125 | 0.114 | 0.0989
13 | CTAACTC | 0.083 | 0.0813 | -0.0796 | -1.4 | 0.0693 | -0.472 | 0.0675 | -0.0785 | 0.0691 | -0.0248
14 | GCTCAGG | 0.0994 | -0.0474 | 0.285 | 1.02 | -0.0227 | 0.786 | 0.0602 | 0.0113 | -0.149 | -0.0429
15 | TTATGAT | -1.37 | 0.00811 | -2.62 | -2.62 | 0.0657 | 0.564 | -1.92 | -0.426 | 0.0181 | -0.295
16 | TACTAAG | 0.0381 | 0.11 | -0.772 | -0.612 | 0.0995 | -1.12 | 0.152 | 0.0975 | 0.11 | -0.0635
17 | GGTTTTA | -0.0143 | 0.107 | 0.415 | 0.874 | 0.119 | 1.82 | 0.0576 | 0.0946 | 0.106 | 0.22
18 | TAATCTT | -3.81 | -3.06 | -4.95 | -3.62 | -0.539 | -3.43 | -4.59 | -4.74 | -3.47 | -4.81
19 | GTAGCAG | 0.0108 | -0.0714 | -0.0207 | -0.0687 | -0.0344 | -0.437 | 0.109 | 0.062 | 0.0287 | -0.00572
20 | TCAAGGT | 0.0183 | -0.0292 | 0.355 | 1.15 | -0.122 | 1.72 | 0.107 | 0.0482 | -0.069 | 0.0234
21 | CGGTATC | 0.192 | 0.152 | 0.264 | 0.704 | 0.0195 | 0.719 | 0.0955 | 0.118 | 0.11 | 0.0708
22 | CAGTGGC | -0.0398 | -0.116 | -0.671 | -0.778 | 0.0359 | -1.12 | -0.182 | -0.168 | -0.157 | -0.253
23 | GAGGTCC | -0.0684 | 0.0358 | 0.352 | 0.764 | -0.0816 | 1.34 | -0.169 | -0.00938 | 0.0021 | 0.18
24 | GTAGGTA | 0.00314 | 0.116 | 0.342 | 0.926 | -0.0372 | 1.55 | 0.0348 | 0.172 | -0.0132 | 0.0204
25 | CAGTGAT | 0.0545 | 0.00549 | 0.254 | 1.54 | -0.0201 | 1.81 | -3.22 | 0.136 | -0.153 | 0.0803
26 | TGGCCCT | -0.0128 | 0.000563 | 0.418 | 0.529 | -0.0415 | 1.22 | 0.0174 | -0.0383 | -0.0294 | 0.0422
27 | TAATCTC | -1.47 | -0.0542 | -4.1 | -3.37 | -0.0268 | -3.28 | -1.49 | -4.12 | -0.438 | -3.89
28 | CCCTTAG | 0.0162 | -0.0773 | -0.755 | -0.439 | -0.0175 | -1.4 | 0.0656 | 0.0317 | 0.131 | 0.0034
29 | CAACGAC | -0.0668 | -0.0952 | -0.182 | -0.586 | -0.00828 | -0.579 | 0.0336 | -0.135 | -0.0488 | -0.0667
